Hit rate of the full screen: of about 220,000 compounds, about 16,000 (7.3%) were called active. This list was built around the results that the source calls inconclusive (neither active nor inactive); the mix of calls is not that of the screen. Calls come from the whole dose curve; as a rule, active = well fitted inhibition curve with a large enough effect (not every such curve was filed as active); inconclusive = small, poorly fitted or top-dose-only effect, or another doubt; inactive = no such curve, though single readings can be large or run the other way. Potencies of inconclusive entries are left out as doubtful fits.
Molecular target: Aldehyde dehydrogenase 1A1 (Homo sapiens) (UniProt P00352)
Test: qHTS Assay for Inhibitors of Aldehyde Dehydrogenase 1 (ALDH1A1);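 for activity, negative = inhibition: plate controls were no enzyme wells and a reference inhibitor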
Conditions: Purified ALDH1A1, NADH fluorescence, propionaldehyde substrate; series mostly up to 75.3 µM; activity, negative = inhibition: at the top concentration
Potency is the fitted concentration of half-maximal effect; tags give direction and shape of the fitted curve.

Chain of UniProt P00352 (P00352 whole entry, looked up): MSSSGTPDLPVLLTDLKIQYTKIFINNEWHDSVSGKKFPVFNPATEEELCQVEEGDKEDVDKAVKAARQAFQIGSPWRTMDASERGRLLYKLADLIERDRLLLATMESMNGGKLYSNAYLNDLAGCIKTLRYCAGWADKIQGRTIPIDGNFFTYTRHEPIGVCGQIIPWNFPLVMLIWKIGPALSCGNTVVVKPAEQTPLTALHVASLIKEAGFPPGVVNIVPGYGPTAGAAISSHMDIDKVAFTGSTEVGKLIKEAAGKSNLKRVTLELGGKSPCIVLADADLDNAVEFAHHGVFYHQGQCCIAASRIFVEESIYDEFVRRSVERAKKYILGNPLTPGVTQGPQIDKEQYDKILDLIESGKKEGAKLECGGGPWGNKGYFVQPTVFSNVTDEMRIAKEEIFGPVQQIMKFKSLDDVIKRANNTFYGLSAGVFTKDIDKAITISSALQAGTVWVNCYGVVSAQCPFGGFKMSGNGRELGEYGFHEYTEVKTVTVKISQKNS

Question: `C=CCn1c(SCC(=O)c2ccccc2)nnc1-c1cc2ccccc2o1` was tested. Which Potency did it give?
Answer: inconclusive [inhibitor, partial curve]

Question: How did the Potency turn out when `O=C(c1ccccc1)N1CCc2ccccc21` was run?
Answer: inconclusive [inhibitor, full curve]

Question: With `COCCNC(=O)/C(C#N)=C/c1cn(CC(=O)NCc2ccco2)c2ccccc12` as the compound, how does the Potency read?
Answer: inconclusive [inhibitor, partial curve]

Question: How did the “activity, negative = inhibition” value turn out when `CCOC(=O)CNc1nc(Cl)nc(NC(C)(C)C)n1` was run?
Answer: inactive: 2.82%

Question: `CCCCOP(=O)(OCCCC)C(Nc1ccccc1)c1ccc2c(c1)OCO2` (stereo unspecified) was tested. Which Potency did it give?
Answer: inconclusive [inhibitor, single point]

Question: With `CCOC(=O)c1sc(NC(=O)CCCCl)nc1C` as the compound, how does the Potency read?
Answer: inconclusive [inhibitor, single point]

Question: With `O=[N+]([O-])c1cccc(-c2csc(Nc3ccccc3)n2)c1` as the compound, how does the Potency read?
Answer: inconclusive [inhibitor, single point]

Question: `O=C1[C@H]2[C@H]3[C@H](O)[C@H](O)C/C(=N/OCc4ccccc4)[C@@H]3CC[C@@H]2C(=O)N1Cc1ccc2c(c1)OCO2` was tested. Which activity, negative = inhibition did it give?
Answer: inactive: -5.64% [at 13.5 µM]

Question: Which Potency does the source give for `CCCn1nnnc1SCC(=O)Nc1ccc(F)cc1` here?
Answer: inconclusive [inhibitor, single point]

Question: `CCOC(=O)c1cncc(C#CCO)c1` was tested. Which “activity, negative = inhibition” value did it give?
Answer: inactive: 2.06%

Question: `Cn1c(CCNC(=O)c2ccc(Cl)c(Cl)c2)nnc1SCc1ccc(Cl)c(Cl)c1` was tested. Which Potency did it give?
Answer: inconclusive [inhibitor, single point]

Question: `COc1ccc(/C=C/N(CCc2ccc(OC)c(OC)c2)C(=O)C(F)(F)F)cc1` was tested. Which activity, negative = inhibition did it give?
Answer: inactive: -20.7% [at 13.5 µM]

Question: Which “activity, negative = inhibition” value does the source give for `Cc1cccc(N2CCN(C(c3cccs3)c3nnnn3C(C)(C)C)CC2)c1C` (stereo unspecified) here?
Answer: inactive: -2.78%

Question: Which Potency does the source give for `Clc1cc2nc3ccccn3c2cc1Cl` here?
Answer: inconclusive [inhibitor, partial curve]

Question: How did the Potency turn out when `O=C(NN1C(=O)c2ccccc2C1=O)C1C2CCCCC21` (stereo unspecified) was run?
Answer: inconclusive [inhibitor, single point]

Question: For `c1ccc(CSCc2cn3ccsc3n2)cc1`, which Potency is on record?
Answer: inconclusive [inhibitor, single point]

Question: How did the Potency turn out when `Cc1ccn2cc(-c3cccc(NS(C)(=O)=O)c3)nc2c1` was run?
Answer: inconclusive [inhibitor, single point]

Question: `Cc1ccc2nc(-c3ccc(N4C(=O)CC(N5CCN(CCO)CC5)C4=O)cc3)sc2c1` (stereo unspecified) was tested. Which Potency did it give?
Answer: inconclusive [inhibitor, partial curve]

Question: `O=C1c2ccccc2NC(c2ccco2)N1O` (stereo unspecified) was tested. Which Potency did it give?
Answer: inconclusive [inhibitor, single point]

Question: `CN1CCCc2cc3c(C(F)(F)F)cc(=O)oc3nc21` was tested. Which Potency did it give?
Answer: inconclusive [inhibitor, partial curve]

Question: How did the “activity, negative = inhibition” value turn out when `Nc1nonc1C(=O)NCCNS(=O)(=O)c1ccc(Br)cc1` was run?
Answer: inactive: 10.2%

Question: Which “activity, negative = inhibition” value does the source give for `CCN(CC)CCCNc1ncnc2ccccc12` here?
Answer: inactive: 1.28%

Question: `COc1cccc(-n2sc3c(c2=S)-c2cc(OC)ccc2NC3(C)C)c1` was tested. Which Potency did it give?
Answer: inconclusive [inhibitor, single point]

Question: `Cc1ccc(SCC(=O)Nc2ccc(N3CCOCC3)cc2)cc1` was tested. Which Potency did it give?
Answer: inconclusive [inhibitor, single point]

Question: For `Nc1ccc(Oc2ccc3nc(-c4ccccc4)c(-c4ccc([N+](=O)[O-])cc4)nc3c2)cc1`, which Potency is on record?
Answer: inconclusive [inhibitor, partial curve]

Question: For `CCOC(=O)c1c(N)sc2c1CCC(CC)C2` (stereo unspecified), which Potency is on record?
Answer: inconclusive [inhibitor, single point]

Question: `O=C(CCSc1ccccc1)N1CCCC1` was tested. Which Potency did it give?
Answer: inconclusive [inhibitor, single point]

Question: `CC1(C)CC(NC(=O)C23CCC(C)(C2Br)C3(C)C)CC(C)(C)N1` (stereo unspecified) was tested. Which Potency did it give?
Answer: inconclusive [inhibitor, single point]

Question: Which Potency does the source give for `Cc1cc(/C(N)=N/OC(=O)Nc2ccccc2)no1` here?
Answer: inconclusive [inhibitor, partial curve]

Question: How did the Potency turn out when `Cc1ccccc1CC1(CO)CCCN(C(=O)c2cc(Cl)ccc2F)C1` (stereo unspecified) was run?
Answer: inconclusive [inhibitor, single point]

Question: Which Potency does the source give for `Cc1ccc(-n2c(Cc3cccn3C)nnc2SCC(=O)N2CCN(c3ccccc3)CC2)cc1` here?
Answer: inconclusive [inhibitor, partial curve, poor fit]

Question: `Cc1cc(=O)[nH]c(SCC(=O)Nc2cc(S(=O)(=O)N(C)C)ccc2Cl)n1` was tested. Which “activity, negative = inhibition” value did it give?
Answer: inactive: 2.31%

Question: `O=c1cc(N2CCOCC2)[nH]c(=O)n1C1CCCCC1` was tested. Which Potency did it give?
Answer: inconclusive [inhibitor, single point]

Question: `S=c1[nH]nc(Nc2ccccc2)s1` was tested. Which Potency did it give?
Answer: active: 6.31 µM

Question: With `COc1ccc(C(CCN(Cc2ccc(OC)c(OC)c2)C(C)=O)c2ccccc2)cc1` (stereo unspecified) as the compound, how does the Potency read?
Answer: inconclusive [inhibitor, single point]

Question: For `COCC(=O)N1CCC2(CC1)CN(c1ccc(-c3ccccc3)cc1)C2`, which Potency is on record?
Answer: inconclusive [inhibitor, partial curve]

Question: How did the “activity, negative = inhibition” value turn out when `O=C(NCC1(N2CCCCC2)CCCCC1)C1CC(=O)N(c2ccc3c(c2)OCCO3)C1` (stereo unspecified) was run?
Answer: inactive: 3.94%

Question: How did the “activity, negative = inhibition” value turn out when `O=C1CSCN1c1ccc(Cl)cc1` was run?
Answer: inactive: 7.18%

Question: How did the Potency turn out when `Cc1ccccc1OCC(=O)Nc1cccc2nsnc12` was run?
Answer: inconclusive [inhibitor, single point]

Question: For `O=C(NCCN1C(=O)S/C(=C\c2ccc(F)cc2)C1=O)c1cccc(S(=O)(=O)N2CCOCC2)c1`, which “activity, negative = inhibition” value is on record?
Answer: inactive: -8.34%

Question: For `Brc1ccc(C2CC(c3ccccc3)=Nc3ccccc3N2)cc1` (stereo unspecified), which Potency is on record?
Answer: inconclusive [inhibitor, single point]

Question: `CC1(C)Cc2ccccc2-c2nnnn21` was tested. Which Potency did it give?
Answer: active: 11.2 µM

Question: With `O=C(COc1ccccc1Cl)NCc1ccco1` as the compound, how does the “activity, negative = inhibition” value read?
Answer: inactive: -0.827%

Question: With `CCC(=O)N1CCc2cc(S(=O)(=O)CCC(=O)NCCC3=CCCCC3)ccc21` as the compound, how does the Potency read?
Answer: inconclusive [inhibitor, partial curve]

Question: Which Potency does the source give for `O=C1CC(c2ccccc2)n2nc(NC(=O)c3ccccn3)nc2N1` (stereo unspecified) here?
Answer: inconclusive [inhibitor, single point]

Question: Which Potency does the source give for `CCOC(=O)C1=C(C)S/C(=C\N(C)C)C1=O` here?
Answer: inconclusive [inhibitor, partial curve]
